The campaign covered roughly 48,000 compounds. About 1,200 (2.5%) were called active. Not shown: some 2% with an inconclusive outcome.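 The calls were made as follows: active = activation of at least 60% and not above a set upper limit (about 1 call in 100 departs from these limits); inconclusive = activation of 40% to 60%, or above that upper limit; inactive = activation under 40%.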 The list shows a part of the results.

This test addresses Probable G-protein coupled receptor 32 (Homo sapiens) (UniProt O75388). Briefly: qHTS for Agonists of Human Resolvin D1 Receptor DRV1. Also: 0% is about no effect. Conditions: CHO-K1 GPR32 beta-arrestin PathHunter luminescence, 90 min; at 76.9 µM; stronger effect = higher value; zero percent set by DMSO-only wells. The procedure, abridged: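 Luminescent readout of beta-Gal complementation quantifies ligand-induced beta-arrestin association with GPR32 in CHO-K1 cells; 90 min compound incubation at 37 °C, detection 1 h at room temperature.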
Sequence of UniProt O75388 (O75388 whole entry, looked up): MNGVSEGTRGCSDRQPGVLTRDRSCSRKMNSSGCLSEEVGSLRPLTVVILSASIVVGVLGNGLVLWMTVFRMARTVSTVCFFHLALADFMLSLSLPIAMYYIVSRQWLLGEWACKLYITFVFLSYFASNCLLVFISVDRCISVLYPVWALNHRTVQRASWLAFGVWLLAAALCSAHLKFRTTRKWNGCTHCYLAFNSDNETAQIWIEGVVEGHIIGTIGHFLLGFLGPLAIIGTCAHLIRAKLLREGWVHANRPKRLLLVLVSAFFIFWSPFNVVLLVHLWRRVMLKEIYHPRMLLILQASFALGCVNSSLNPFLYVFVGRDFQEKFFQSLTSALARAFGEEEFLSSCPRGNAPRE
On the technique in general: qHTS replaces the single test concentration by a dilution series.
Consider `O=C(NCCS(=O)(=O)N1CCN(c2ccc(F)cc2)CC1)C1CC(=O)N(c2ccccc2)C1` (centres undefined), for which the activation was inactive: -7.62%.

With `COc1ccccc1-n1c(=O)c2c3c(sc2n(Cc2ccccc2F)c1=O)CN(C(C)=O)CC3`, the activation was inactive: -4.8%. The result for `CC(C)(C)C(=O)Nc1ccc2nc(SCC(=O)N3CCc4ccccc43)sc2c1` reads inactive: 47.1%; that for `Cc1ccc(S(=O)(=O)c2cn(CC(=O)Nc3ccc4c(c3)OCO4)c3ccccc3c2=O)cc1C`, inactive: -0.966%; that for `CCOc1ccc(CCNC(=O)c2cccc(-n3c(C)nc4cccnc43)c2C)cc1`, inactive: -0.043%.

For the compound `CCOC(=O)CCCN1C(=O)CCn2nc(-c3cn(C)c4ccccc34)cc21`, the activation was inactive: -24.6%.

For the compound `O=C(Nc1ccc(C(=O)OCc2cc(=O)n3nc(C4CC4)sc3n2)cc1)c1cccc(Cl)c1`, the activation is inactive: -12.5%.

In the case of `CCc1ccccc1NC(=O)C(CC)Oc1ccccc1-c1nnc(-c2ccccc2)o1` (centres undefined), the activation was inactive: -1.84%.

With `CCCCN(Cc1ccccc1)S(=O)(=O)c1cc(Br)cc2c1N(C(C)=O)CC2`, the activation is inactive: 5.17%.

Regarding `O=C1CC(c2ccc(Cl)cc2)c2cc3c(cc2N1)OCCO3` (centres undefined), the activation was active: 80.4%. As for `COc1ccc(C(=O)Nc2c(C(=O)c3ccc(F)cc3)oc3ccccc23)cc1`, the activation was inactive: -2.55%. Under `CCc1cccc(C)c1NC(=O)C1CCN(S(=O)(=O)c2cccc3nonc23)CC1` stands inactive: -8.93%. As for `CCCSc1ncc(Cl)c(C(=O)Nc2scc(-c3ccc(C)cc3)c2C(=O)OCC)n1`, the activation is inactive: -13.2%. The result for `O=C1NC(=O)[C@@]2(CCOc3ccc(F)cc32)N1` reads inactive: -23.1%. For `CCOCCCNC(=O)c1cc(=O)[nH]c2ccc(S(=O)(=O)N3CCCC3)cc12`, the activation is inactive: -3.06%. As for `CCOc1ccc(CNC(=O)c2cccn2-c2nnc(N3CCCCC3)s2)cc1OC`, the activation is inactive: 12%. Regarding `CCCCC(=O)Nc1c(C(=O)N2CCN(c3ccccc3)CC2)oc2ccccc12`, the activation is inactive: -32.3%.

Take `COc1ccc(-c2nc3c(c(SCC(=O)Nc4ccccc4OC)n2)Cc2cccc(C)c2O3)cc1`: the activation is inactive: -1.97%. Regarding `CCCCCn1c(=O)[nH]c2cc(C(=O)N3CCN(c4cccc(OC)c4)CC3)ccc2c1=O`, the activation was inactive: 35.7%. The result for `Cc1cc(C)cc(OCc2cc(=O)n3c4c(sc3n2)CCCC4)c1` reads inactive: -22.7%; that for `CCC(C)NC(=O)Cc1ccc(NC(=O)N2CCCCc3ccccc32)cc1` (centres undefined), inactive: -7.21%. Under `CC(C)Oc1ccc(CNC(=O)C2CCCCN2S(=O)(=O)c2ccc(F)cc2)cc1` (centres undefined) stands inactive: -4.43%; under `O=C(CS(=O)(=O)c1cccc2nsnc12)Nc1ccc(F)cc1F`, inactive: -10.4%. As for `N#Cc1ccccc1NC(=O)C(=O)NCC(c1ccc2c(c1)OCO2)N1CCOCC1` (centres undefined), the activation was inactive: -11.7%. Under `Cc1ccc(-n2c(=O)c3oc4ccccc4c3n(CC(=O)Nc3ccc(F)c(Cl)c3)c2=O)cc1C` stands inactive: -20.4%; under `CC(=O)N1CCOc2cc(S(=O)(=O)Nc3c(C)cccc3C(C)C)c(Cl)cc21`, inactive: -32.6%. Take `CC(C)CCNC(=O)c1c2c(nc3ccccc13)C(=O)N(C1CCCCC1)C2`: the activation was inactive: -1.93%. Under `Cc1ccc(-c2nc(CS(=O)CC(=O)N3CCN(c4ccc(F)cc4)CC3)c(C)o2)cc1` (centres undefined) stands inactive: 9.81%; under `CCCCN(C)C(=O)c1ccc2c(c1)N(Cc1ccc(F)cc1)C(=O)c1ccccc1S2(=O)=O`, inactive: -30.6%; under `O=C(Nc1ccccc1F)C1CCN(S(=O)(=O)c2ccc3c(c2)CCCN3C(=O)C2CCC2)CC1`, inactive: -13.8%. Under `CCc1cccc(C)c1NC(=O)c1ccc2c(c1)CCN2S(=O)(=O)CC` stands inactive: 1.86%; under `CC(=O)Nc1ccc(NC(=O)c2cc(-c3cccs3)on2)cc1`, inactive: 36.2%. On to `O=C(CSC1=Nc2ccccc2N=C(c2ccc(F)cc2)C1)Nc1ccc(Cl)cc1`, for which the activation was inactive: -0.713%. `COc1ccc(Cl)cc1NC(=O)NCCc1c(C)nn(C)c1C`: the activation was inactive: 15.4%. The result for `COc1ccc(OC)c(NC(=O)Cn2c(=O)n(Cc3nc(C)no3)c(=O)c3ccccc32)c1` reads inactive: -9.8%; that for `COc1ccc(Nc2ncnc3onc(C)c23)c(OC)c1`, inactive: -6.66%; that for `Cc1ccc(Sc2c(C)nn(C(=O)c3ccc(Br)cc3)c2C)cc1`, inactive: 39.6%. The result for `CC(C)(C)c1nnc(NS(=O)(=O)c2ccc(N)cc2)s1` reads inactive: 7.68%. The result for `COc1ccccc1CNS(=O)(=O)c1ccc2c(c1)CC(C)N2C(=O)C1CCC1` (centres undefined) reads inactive: 19.1%. Turning to `COc1ccc(N2CCN(C(=O)C(C)n3c(=O)cc(C(F)(F)F)c4c(C)nn(C)c43)CC2)cc1` (centres undefined), the activation was inactive: 27.6%.

In the case of `CCOc1ccc(NC(=O)c2cc(C)nc3c2c(C)nn3-c2cccc(F)c2)cc1`, the activation was inactive: -23%.

As for `Cn1cnc(S(=O)(=O)N2CCCC(C(=O)NCc3ccccc3)C2)c1` (centres undefined), the activation is inactive: -12.5%. `Cc1cccc(N2CCN(C(=O)Cn3ncc4c([nH]c5ccccc54)c3=O)CC2C)c1` (centres undefined): the activation is inactive: -5.62%. Under `COc1ccc(-c2cc(C)no2)cc1S(=O)(=O)NC1CCC(C)CC1` (centres undefined) stands inactive: -4.59%; under `Cc1ccc(NC(=O)C2CCCN2S(=O)(=O)c2ccc3c(c2)C(C)(C)C(=O)N3C)cc1` (centres undefined), inactive: -3.46%; under `Cc1ccc(S(=O)(=O)c2nc(-c3ccco3)oc2SCc2ccc(F)cc2)cc1`, inactive: -11.1%. The result for `CC1(C(=O)NC2CCCCC2)Cc2ccccc2C(=O)N1Cc1ccc(F)cc1` (centres undefined) reads inactive: -13.7%. The result for `COc1ccc(S(=O)(=O)NCCc2sc3nc(-c4ccc(C)cc4)nn3c2C)cc1F` reads inactive: 3.3%; that for `O=C(CSc1nc2ccccc2nc1Cc1ccccc1)Nc1ccccc1C(F)(F)F`, inactive: -44.4%.

Take `CCOc1ccc(-n2ccnc2SCC(=O)Nc2ccc3c(c2)OCO3)cc1`: the activation is inactive: -0.501%. The result for `Nc1nc(F)nc2c1ncn2[C@@H]1O[C@H](CO)[C@@H](O)[C@@H]1O` reads inactive: 3.3%. Under `CCOc1ccc(CNC(=O)c2cnc3sc(N(CC)CC)nn3c2=O)cc1` stands inactive: -10.1%; under `O=C(NCCS(=O)(=O)N1CCN(c2ccccc2F)CC1)C1CC(=O)N(c2ccccc2)C1` (centres undefined), inactive: -17.7%; under `COc1cccc(NC(=O)c2c(N3CCCC3=O)c3cc(C)ccc3n2C)c1`, inactive: 9.29%. The result for `CCCNc1ncnc2c1c(-c1ccccc1)cn2-c1ccc(OCC)cc1` reads inactive: -39.4%; that for `COc1ccc(NC(=O)CCn2c(-c3ccc(F)cc3)cc(C(C)=O)c2C)c(OC)c1`, inactive: -15.8%. Regarding `O=c1cc(CSc2ccccc2)[nH]c2ccc(F)cc12`, the activation was inactive: 16.2%. The result for `COc1ccc(-c2cc(C(C)=O)c(C)n2CCC(=O)Nc2ccc(C)c(Cl)c2)cc1` reads inactive: -26%; that for `O=C(COc1ccc(F)cc1)Nc1ccc(S(=O)(=O)N(Cc2ccccc2)c2ccccc2)cc1`, inactive: -11.4%; that for `CCc1ccc(CNC(=O)c2sc3nc[nH]c(=O)c3c2C)cc1`, inactive: 1.09%. As to `CCCOc1ccc(C(=O)Nc2ccc(-c3cc4ccccc4oc3=O)c(C)c2)cc1`, the activation was inactive: 11.1%. As to `CCc1ccc(Nc2nnc(-c3cc4cc(OC)ccc4oc3=O)s2)cc1`, the activation was inactive: -6.57%.

With `Cc1ccc(NC(=O)c2c(C)oc3ccc(O)c(CN(C)Cc4ccccc4)c23)c(C)c1`, the activation is inactive: -24.5%. Under `CCc1c(C)nc(SCc2nc(-c3ccccc3C)no2)[nH]c1=O` stands inactive: 28.8%; under `COc1ccc(OC)c(CNc2ncnc3c2nc2n3CCCC2)c1`, inactive: -11.4%. The result for `COc1cc(NC(=O)C(NS(=O)(=O)c2ccc3c(c2)CCCC(=O)N3)C(C)C)cc(OC)c1` (centres undefined) reads inactive: 10.5%; that for `CCOc1ccc(S(=O)(=O)c2c(C(=O)c3ccc(C)c(C)c3)cnc3ccccc23)cc1`, inactive: -16.5%. Take `Cc1ccc(CNC(=O)CCc2nnc3n(C)c(=O)c4sccc4n23)cc1`: the activation is inactive: 3.36%. Under `Cc1ccc(NC(=O)c2sc3nc(-c4ccncc4)ccc3c2N)cc1` stands inactive: -2.88%.

Take `CC(=O)Nc1ccc(Nc2c(CCC(C)C)c(C)c(C#N)c3nc4ccccc4n23)cc1`: the activation is inactive: 18.8%.

In the case of `Cc1ccccc1C(=O)Nc1nnc(S(=O)(=O)N(C)c2ccc(Cl)cc2)s1`, the activation was inactive: 8.7%. Under `CC(=O)N[C@@H](CC(C)C)C(=O)O` stands inactive: 0.723%. Under `Cc1ccccc1Cn1c(=O)n(CCc2ccccc2)c(=O)c2sc3ccccc3c21` stands inactive: -2.42%; under `COC(=O)c1sccc1S(=O)(=O)N(CC(=O)Nc1ccc(C)c(F)c1)c1ccc(C)c(C)c1`, inactive: -11%.

Regarding `Cc1ccc(CNc2ncccc2-c2nc(-c3ccc(Cl)cc3)no2)cc1`, the activation is inactive: -0.805%.

On to `O=C(CCCn1c(=O)c2sccc2n(Cc2ccc(Cl)cc2)c1=O)NCc1ccc2c(c1)OCO2`, for which the activation is inactive: -24.7%. Take `COc1ccccc1N1CCN(S(=O)(=O)CCNC(=O)COc2ccccc2F)CC1`: the activation was inactive: -0.195%. For `CN1CCCC1CCOC(C)(c1ccccc1)c1ccc(Cl)cc1` (centres undefined), the activation is inactive: -14%.

With `COC(=O)c1sccc1S(=O)(=O)N1CCN(c2ccc(Cl)cc2)CC1`, the activation is inactive: -28.3%. The result for `Cc1scc(CN2CCN(c3ccc(F)cc3)CC2)c1C` reads inactive: -12.1%.

For `COc1ccc(Br)cc1CNC(=O)CCc1cn(Cc2ccc(C)cc2)c2ccccc12`, the activation is inactive: -30.5%. The result for `CCOC(=O)c1ccccc1NC(=O)c1cc2c(s1)-c1ccccc1SC2` reads inactive: -6.56%; that for `CC1=C(c2ccc(Cl)cc2)S(=O)(=O)N=C1N1CCC(C(=O)NCCc2ccco2)CC1`, inactive: 19.2%; that for `CC(C)c1ccc(NC(=O)CN2C(=O)CSc3ccc(S(=O)(=O)N4CCCC4)cc32)cc1`, inactive: -22.6%.

The values are drawn from PubChem BioAssay AID1346428 (National Center for Advancing Translational Sciences (NCATS), 2018).
